± gives the standard deviation of the averaged measurements. This is one part of the list.
Tested on: PfAP2-I AP2 domain 3 (GST-tagged)
Assay: gcPBM binding intensity (ln(normalized median fluorescence intensity)); higher = stronger DNA binding
In short: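 In this array assay, P. falciparum DNA-binding domains with a GST tag, expressed in E. coli, were applied for 1 h to primer-extended double-stranded 36-bp intergenic genomic probes and negative controls on an Agilent 4 × 180k array. Bound protein was visualised with Alexa488 anti-GST antibody at 488 nm. Binding intensity is the highest Masliner-normalised natural-log median intensity across replicate spots of either probe orientation.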

| Sequence | gcPBM binding intensity (ln) |
| --- | --- |
| ATAATTAGGGTGTATTTCATTTCATTTCATTTTATT [CACACA_negctrl_site1418] | 7.87 ± 0.6 |
| AATATATAAATATATACACACAAAAACATATATATA [CACACA_site1318] | 7.87 ± 0.69 |
| TATATACAAATATGTACACACATTACAGATGTACAT [CACACA_site6586] | 7.87 ± 0.26 |
| TAGAAAAAATAAAATAGTACACATCCAAAAAAAAAA [XGTACX_site7829] | 7.96 ± 0.56 |
| GATATAAACGTATATGTACATATATATATATATATA [GTGCAC_negctrl_site186] | 9.62 ± 0.49 |
| ATCATGGAAAAAACAAATGGGCTACATTACCTTTTG [GTGCAC_negctrl_site487] | 7.43 ± 0.73 |
| TTGGAGTTCATATGTGGTACACATTTAAATATATTT [XGTACX_site5582] | 7.8 ± 0.42 |
| ATAATAAATGTCTTCAATGAAGTGGAAATGCTGTTA [TGCATGCA_negctrl_site238] | 7.76 ± 0.58 |
| ATATATACATAGAATTGTACATAATTTATGTTCATT [XGTACX_site7426] | 7.66 ± 0.45 |
| CAAACAAATTGTGAAACACACATATATATATATATA [CACACA_site2001] | 9.54 ± 0.38 |
| AACGTATTATTTATCTGTACAAAATAATAACGTATT [XGTACX_site813] | 7.62 ± 0.52 |
| TAAATAAAAATACAGTGTACTTTTTTCTATTTAAAA [XGTACX_site3288] | 7.62 ± 0.19 |
| ATCCAAATTAATAATAGTACTTTTAAGTCCTATGTA [XGTACX_site2452] | 7.32 ± 0.45 |
| TTTTGTTTTTTCAATGTGCACTTAGGATGTTTTTAT [GTGCAC_site9565] | 10.26 ± 0.014 |
| ATTAATATGAATAAATGTACAAATGAATGATTACAT [XGTACX_site6044] | 7.61 ± 0.44 |
| TAATATAATATATAGGTGCAATATTAACAAAAATTT | 11 ± 0.44 |
| ATAATGTGTTAGGCGTGTACACAATTGTATGGTTTA [XGTACX_site2377] | 8.21 ± 0.4 |
| AAATAAAATCATAATGTGCGCATATAAATTTGTAGG [GTGCAC_site9662] | 8.51 ± 0.37 |
| AAGGTAGATATATTTAGTACGTAATTTTTTTTTTTT [XGTACX_site7288] | 7.62 ± 0.23 |
| ATATATATATATGAAAGTACACATCTATTTTTTCTT [XGTACX_site6059] | 9.29 ± 0.18 |
| TAAATATTATTTATATGTACTGATATATTAAATAAA [XGTACX_site3446] | 7.36 ± 0.28 |
| AATTAATATTTAAATTGTACATGAACATTTTAATGT [XGTACX_site462] | 7.52 ± 0.48 |
| AAAATAAAATTTACTTGTACTAAAGGGATACGCGCA [XGTACX_site1453] | 7.46 ± 0.49 |

| Sequence | gcPBM binding intensity (ln) |
| --- | --- |
| GTCACAAAATAAATTAAACACACAACATCATATATG [CACACA_site8182] | 7.83 ± 0.59 |
| AATATAAATTTATATTGTACATATTTTATTATATGT [XGTACX_site905] | 7.68 ± 0.32 |
| GTGTATCAATATGTAGGTACGTAAATATAGATAATA [XGTACX_site5526] | 7.96 ± 0.54 |
| AAAAAAAAAAACAGTTGTACATTTATTTATATATTA [XGTACX_site217] | 7.49 ± 0.18 |
| AAAATAAGGACTGTTGTGCACTGGATTTGTGGTTAC [GTGCAC_site9830] | 10.64 ± 0.099 |
| TAAGTAAAAAATTAAAAAGATTACAGGGGGGGAAGG [XGTACX_negctrl_site491] | 9.54 ± 0.12 |
| ATTTTAACGAATATATGTACATAAAAAAAAAAAAGA [XGTACX_site8750] | 8.23 ± 0.28 |
| GACATAAGATAATTACACATTGTTTCCTCAATAATA [CACACA_negctrl_site1616] | 7.76 ± 0.62 |
| ACATATCTACACAGTGGTACTTCCATTAATATATAC [XGTACX_site3827] | 8.18 ± 0.62 |
| AAAAGGGATAAATGTGCGCACATGTTATATATATAT [GTGCAC_site9534] | 9.68 ± 0.18 |
| AACAATGTTGTACATACACACACACTAATAAAAAAT [CACACA_site8758] | 8.15 ± 0.42 |
| TCATAAATTAAACAAACACACACGTTCTTTTATTTA [CACACA_site713] | 7.58 ± 0.64 |
| ATTTATTCAAATGGTTGTACTACAAATAAACATTAT [XGTACX_site3378] | 8.1 ± 0.42 |
| AATACATACAGACACACACACACATATAAATAAATA [CACACA_site7642] | 8.07 ± 0.27 |
| GCTCATTGAAGTTATACACACCAAATATGTAAATAT [CACACA_site7217] | 8 ± 0.53 |
| TCCTTTTCTTAATTTAAAAAATATAAAAAAAACGAA [CACACA_negctrl_site1821] | 7.61 ± 0.27 |
| AGAAGCATACATCAAGCACACACACCCACACCCACA [CACACA_site8014] | 8.18 ± 0.44 |
| ACACGTTTATATAAAAAATTAAAATTTTTCTTATTT [CACACA_negctrl_site1523] | 7.95 ± 0.32 |
| ATAACAAAATAAAACACACACACAAATGTACAGATA [CACACA_site5358] | 7.97 ± 0.53 |
| TATTCATGTTTAAAAAGTACATATTATGGTAACATT [XGTACX_site4533] | 7.94 ± 0.48 |
| ATTTTTGTGTTTACACGTACGTGTAAATTATTTTTC [XGTACX_site1869] | 8.4 ± 0.76 |
| CATAATTTACATAAAAGTACATATATATTAATGACG [XGTACX_site6247] | 7.79 ± 0.33 |
| TTAAATAAAATTTATTGTACATAAAATTAAATATAG [XGTACX_site3039] | 7.875 ± 0.078 |

| Sequence | gcPBM binding intensity (ln) |
| --- | --- |
| AATATTTAAGTACTGGTGCGTGTATATAATGATTAA [GTGCAC_site9633] | 8.65 ± 0.27 |
| AAACTTGTAAGAAACACACACACACGCATATAAATA [CACACA_site6518] | 8.02 ± 0.56 |
| ATAAATAAAATATGCACACAAATATAGGAAACAACA [CACACA_site2561] | 8.81 ± 0.33 |
| GTAAAAAAAGAGCACACACACAAAAACACCCACAAA [CACACA_site1292] | 8.755 ± 0.049 |
| TTTATTCCCGCATATAGTACATATACCATTTAATGT [XGTACX_site7011] | 8.06 ± 0.84 |
| ATATAATATGGTATTACACACTGTTATAAGTATGGC [CACACA_site2094] | 7.8 ± 0.5 |
| CATAAATACACTGTAGCGCACACGGCCAAAAAAAAA [CACACA_site8537] | 9.79 ± 0.4 |
| TGTATATACATAAAGTGTACGTATATTTATATATAT [XGTACX_site4320] | 8.25 ± 0.3 |
| TATTTTTATTTTACATTATTTGTTTATAATTCTTAA [CACACA_negctrl_site1358] | 7.7 ± 0.46 |
| AATAAATAAATAAATATATATATATATATATATATA [CACACA_negctrl_site708] | 9.45 ± 0.86 |
| ATATATATATATAATGCACACATTATAAATTATGTA [CACACA_site5802] | 11.1 ± 0.26 |
| AAAAAAAAAAAAAACACACAAACAAATGAATAAATA [CACACA_site3300] | 8.15 ± 0.62 |
| TTTTTTTTTTATTCATGTACGTATTTAAATAATTCT [XGTACX_site2651] | 7.92 ± 0.55 |
| GAGTTTTAATGTAATAGTACTTTAATTATTATATAT [XGTACX_site4527] | 7.66 ± 0.28 |
| ATCTTTTATATATTCACACATAAAATTATACAGATA [CACACA_site5277] | 7.99 ± 0.52 |
| GATCGCATGAAATGAACACACATAAAAAAAATATAC [CACACA_site4087] | 8.07 ± 0.52 |
| AAAAAAAAAATATACACACACACATACCCATAAATA [CACACA_site5981] | 7.96 ± 0.44 |
| TTATAAAAATACAGTTAACACACATGTGTATATATA [CACACA_site9257] | 7.79 ± 0.47 |
| AAAATAATCTTATGCACACCAAAAATTTATATAATC [CACACA_site1235] | 9.32 ± 0.43 |
| TAATGCAACATTTATGTGCACATAAATATTTTTTAA | 9.815 ± 0.064 |
| AAAACACAATTTATTACACACATATATTATAGATTA [CACACA_site6780] | 7.61 ± 0.68 |
| TTTATTTTAAATTTACGTACATAATTAATCATATTT [XGTACX_site7529] | 7.87 ± 0.28 |
| ATAAAAAATTAGGACTGTACATAATTTTTGTGATTT [XGTACX_site2857] | 7.67 ± 0.52 |

| Sequence | gcPBM binding intensity (ln) |
| --- | --- |
| TATATATATAAGGATAGTACATATATTTATATGATT [XGTACX_site4954] | 8.9 ± 0.26 |
| GACTACACACAAGGGTGTACATATATATTATATATA [XGTACX_site2247] | 7.96 ± 0.33 |
| TTAACTTATTTGTAAAGTACATTAATAAAAAGAAAA [XGTACX_site1588] | 7.74 ± 0.49 |
| AGGTTATAATTGTTTTCACACATTTAAAAATGTTAT [CACACA_site5097] | 7.79 ± 0.64 |
| TTATATATTTCTATTGCACACTATATTTTATGAAGA [CACACA_site2910] | 10.2 ± 0.11 |
| ATGAAATTTATATCATGTACATACAAGAGAAAAAAA [XGTACX_site3326] | 7.89 ± 0.59 |
| AAAATTATAAAATGGGCACACATGAATATTGTAGTA [CACACA_site5261] | 7.8 ± 0.63 |
| GTATAATAAATGATAGCACACATATGTACTTATATA [CACACA_site8188] | 8.13 ± 0.35 |
| TGCTTCTTTTAAAAACATGTTTGTATTCATTTTATA [CACACA_negctrl_site1627] | 8.05 ± 0.74 |
| TTTTGGATGAACAGTACATGCAAAAACAAACTTGTA [TGCATGCA_site16] | 7.75 ± 0.74 |
| ATAATACCATTAATTTGTACATATATATTATATATA [XGTACX_site4345] | 7.87 ± 0.43 |
| ATTATATTATATATATGTACATATATATATCATAAT [XGTACX_site1] | 7.63 ± 0.49 |
| ACAAAAAGTTACATACGTACGTAAAATTGTAATAAA [XGTACX_site2358] | 7.84 ± 0.3 |
| GACAAATGAAAAGATTGTACATGTATTTGAAGATTA [XGTACX_site6775] | 7.63 ± 0.38 |
| TCTTTTATATTTTTTTGTACACAAGAATAAAGAAAA [XGTACX_site3394] | 8.18 ± 0.4 |
| TACACAAAAATTTATACACACACATATATAATATAT [CACACA_site7931] | 7.77 ± 0.34 |
| TGATTATATATAAATGTATGCATGTCTATTATGCTA [TGCATGCA_site543] | 7.44 ± 0.57 |
| TATATATATATATATTGTACACATACATGTAGTTTT [XGTACX_site4848] | 9.48 ± 0.54 |
| AAAGTAATATATAATACATGCGTAAATATTTATGTA [TGCATGCA_site254] | 7.71 ± 0.53 |
| TATATATATATATAGGTGCAATATTGAAAAAATATC [GTGCAC_site9535] | 11.3 ± 0.47 |
